According to article PMC5750207:
No constants are given. Whether binding was seen depends on the method and setting. Binding seen in cells or lysates may run through a third protein. Some entries that bind do so weakly or less than the wild type. Sequences can lack the tags named with a protein.

Molecular target: T1, Flag-tagged Sirt2 (UniProt Q8VDQ8)
T1 sequence: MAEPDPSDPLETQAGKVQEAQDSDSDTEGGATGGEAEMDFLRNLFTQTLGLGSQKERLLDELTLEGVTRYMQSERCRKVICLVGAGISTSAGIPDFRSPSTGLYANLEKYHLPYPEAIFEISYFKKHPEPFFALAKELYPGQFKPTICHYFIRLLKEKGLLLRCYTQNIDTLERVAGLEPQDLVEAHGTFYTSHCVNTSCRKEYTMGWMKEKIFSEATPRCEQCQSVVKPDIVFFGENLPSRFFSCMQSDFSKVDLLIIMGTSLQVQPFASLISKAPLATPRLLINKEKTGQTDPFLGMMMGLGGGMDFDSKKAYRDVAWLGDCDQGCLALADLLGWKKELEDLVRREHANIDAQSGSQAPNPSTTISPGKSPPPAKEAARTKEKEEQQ
Assay: co-IP; HEK293 cells expressing Flag-tagged Sirt2 with Halo-tagged GKRP or Halo-tagged GK; immunoprecipitation and immunoblot

B1: Halo-tagged GKRP (protein, UniProt Q91X44 1-623)
chain: MPSTKRYQHVIETPEPGEWELSGYEAAVPITEKSNPLTRNLDKADAEKIVQLLGQCDAEIFQEEGQIMPTYQRLYSESVLTTMLQVAGKVQEVLKEPDGGLVVLSGGGTSGRMAFLMSVSFNQLMKGLGQKPLYTYLIAGGDRSVVASRERTEDSALHGIEELKKVAAGKKRVVVIGISVGLSAPFVAGQMDYCMDNTAVFLPVLVGFNPVSMARNDPIEDWRSTFRQVAERMQKMQEKQEAFVLNPAIGPEGLSGSSRMKGGSATKILLETLLLAAHKTVDQGVVSSQRCLLEILRTFERAHQVTYSQSSKIATLTKQVGISLEKKGHVHLVGWQTLGIIAIMDGVECIHTFGADFRDIRGFLIGDHNDMFNQKDELSNQGPQFTFSQDDFLTSVLPSLTEIDTVVFIFTLDDNLAEVQALAERVREKSWNIQALVHSTVGQSLPAPLKKLFPSLISITWPLLFFDYEGSYVQKFQRELSTKWVLNTVSTGAHVLLGKILQNHMLDLRIANSKLFWRALAMLQRFSGQSKARCIESLLQVIHFPQPLSNDVRAAPISCHVQVAHEKEKVIPTALLSLLLRCSITEAKERLAAASSVCEVVRSALSGPGQKRSIQAFGDPVVP
With B1 the binding was “binds”.

B2: Halo-tagged GK (enzyme, UniProt P52792 1-465)
chain: MLDDRARMEATKKEKVEQILAEFQLQEEDLKKVMSRMQKEMDRGLKLETHQEASVKMLPTYVRSTPEGSEVGDFLSLDLGGTNFRVMLVKVGEGEAGQWSVKTKHQMYSIPEDAMTGTAEMLFDYISECISDFLDKHQMKHKKLPLGFTFSFPVRHEDIDKGILLNWTKGFKASGAEGNNIVGLLRDAIKRRGDFEMDVVAMVNDTVATMISCYYEDRQCEVGMIVGTGCNACYMEEMQNVELVEGDEGRMCVNTEWGAFGNSGELDEFLLEYDRMVDESSVNPGQQLYEKIIGGKYMGELVRLVLLKLVEENLLFHGEASEQLRTRGAFETRFVSQVESDSGDRRQILNILSTLGLRPSVADCDIVRRACESVSTRAAHMCSAGLAGVINRMRESRSEDVMRITVGVDGSVYKLHPSFKERFHASVRRLTPNCEITFIESEEGSGRGAALVSAVACKKACMLGQ
In the case of B2, the binding is reported as “no binding”.
